Here are results for 29 molecules from PubChem BioAssay AID1745853 (National Center for Advancing Translational Sciences (NCATS), 2022).

What all share (assay): Primary Screen for Target Class Profiling of Small Molecule Inhibitors of Methyltransferases
The target in assay [1] is Glycine N-methyltransferase (Homo sapiens) (UniProt Q14749). The following applies: purified enzyme, MTase-Glo SAH luminescence; measured here: GNMT inhibition; at 40 µM; stronger effect = lower value. The procedure, abridged: (§1)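 Each enzyme was reacted with SAM and its substrate, with compounds tested once at 40 uM; SAH formed was read by MTase-Glo luminescence.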
Assay [2] deals with Guanidinoacetate N-methyltransferase (Homo sapiens) (UniProt Q14353). The settings on record: purified enzyme, MTase-Glo SAH luminescence; measured here: GAMT inhibition; at 40 µM; stronger effect = lower value. The procedure, abridged:
as §1

The target in assay [3] is Histamine N-methyltransferase (Homo sapiens) (UniProt P50135). The settings on record: purified enzyme, MTase-Glo SAH luminescence; measured here: HNMT inhibition; at 40 µM; stronger effect = lower value. The essentials:
as §1

In assay [4] the target is Nicotinamide N-methyltransferase (Homo sapiens) (UniProt P40261). The following applies: purified enzyme, MTase-Glo SAH luminescence; measured here: NNMT inhibition; at 40 µM; stronger effect = lower value. The essentials:
as §1

Assay [5] concerns the target Phenylethanolamine N-methyltransferase (Homo sapiens) (UniProt P11086). The settings on record: purified enzyme, MTase-Glo SAH luminescence; measured here: PNMT inhibition; at 40 µM; stronger effect = lower value. The essentials:
as §1

This is one part of the list. Further columns of the screen follow, without active or inactive calls.
% is set by controls: 0 for no effect and ±100 for the full control effect.

Consider `COc1ccc(NC(=O)N2CCn3c(C)ccc3C2C(C)C)cc1` (stereo not given), for which the activity change, negative = inhibition in assay [1] is 0.905%; in assay [2], 0%; in assay [3], -5.97%; in assay [4], -5.09%; in assay [5] it was -3.86%.

As to `Cc1cc2c(N3CCCC3)nc(N3CCCC3)nc2n1C`, the activity change, negative = inhibition in assay [1] is -88.1%; in assay [2] it was -1.36%; in assay [3], -27.6%; in assay [4], -20.9%; in assay [5], -8.39%.

Take `O=C([C@@H](Cc1cccc(C(F)(F)F)c1)NS(=O)(=O)c1cc(F)c2c(c1)CCNC2)N1CCCC1`: the activity change, negative = inhibition in assay [1] was -3.4%; in assay [2], -7.03%; in assay [3], 5.38%; in assay [4], -19%; in assay [5], -3.71%.

Regarding `COc1c2ccoc2cc2oc(CO[C@@H]3O[C@H](CO)[C@@H](O)[C@H](O)[C@H]3O)cc(=O)c12`, the activity change, negative = inhibition in assay [1] is -5.33%; in assay [2] it was -8.26%; in assay [3] it was 1.71%; in assay [4], -16.1%; in assay [5] it was -6.36%.

Regarding `CN1C(=O)c2cc(C(=O)NCc3cccc(F)c3)nn2CC1(C)C(=O)NC1CCCCC1` (stereo not given), the activity change, negative = inhibition is -2.01% in assay [1]; -5.06% in assay [2]; -1.79% in assay [3]; -8.35% in assay [4]; -7.34% in assay [5].

With `CCC(C)/C=C(C)/C=C/C1=CC2=C(Cl)C(=O)C(C)(OC(C)=O)C(=O)C2=CN1C(CCC(=O)O)C(=O)O` (stereo not given), the activity change, negative = inhibition was -1.11% in assay [1]; -3.53% in assay [2]; -1.05% in assay [3]; -15% in assay [4]; -4.34% in assay [5].

For `COCCCNC(=O)c1cnc2c(c1)N(C(=O)Cc1cn(C)c3ccccc13)CCC2`, the activity change, negative = inhibition in assay [1] was -3.74%; in assay [2], -6.58%; in assay [3] it was -0.674%; in assay [4], -11%; in assay [5], -5.89%.

Regarding `CN1CCCCCCN(C(=O)Cc2c[nH]c3ccccc23)[C@H]2CCC[C@H]2C1=O`, the activity change, negative = inhibition in assay [1] was -5.98%; in assay [2] it was -8.61%; in assay [3], -2.23%; in assay [4] it was -14.4%; in assay [5], -8.92%.

Turning to `CC1(C(=O)NC2CCCCCCC2)Cn2c(ccc2-c2ccco2)C(=O)N1Cc1ccccc1F` (stereo not given), the activity change, negative = inhibition is -8.43% in assay [1]; 0.021% in assay [2]; -3.78% in assay [3]; -15.9% in assay [4]; -5.89% in assay [5].

Consider `CC(C)NC(=O)c1ccc2c(=O)n(Cc3ccccc3)c3nn(Cc4ccc(F)cc4Cl)c(=O)n3c2c1`, for which the activity change, negative = inhibition in assay [1] is 1.46%; in assay [2], 5.25%; in assay [3] it was -0.229%; in assay [4], -1.48%; in assay [5] it was -2.31%.

In the case of `O=C(CCCc1nnc2n3nc(-c4ccccc4)nc3c3ccccc3n12)NCCN1CCCC1`, the activity change, negative = inhibition in assay [1] was -8.68%; in assay [2] it was 1.19%; in assay [3] it was -59.2%; in assay [4], 5.87%; in assay [5] it was -4.28%.

In the case of `CC(C)CNC(=O)c1ccc2c(=O)n(Cc3ccccc3)c3nn(CC(N)=O)c(=O)n3c2c1`, the activity change, negative = inhibition was -1.42% in assay [1]; 0% in assay [2]; 0.745% in assay [3]; -10.2% in assay [4]; 1.26% in assay [5].

Take `COc1ccc(NC(=O)CSc2nnc3n(CC(C)C)c(=O)c4cc(F)ccc4n23)cc1OC`: the activity change, negative = inhibition amounted to 0.71% in assay [1]; 4.48% in assay [2]; 3.99% in assay [3]; 0.881% in assay [4]; 1.94% in assay [5].

With `COc1ccc(NC(=O)Cn2nc3n(CCc4ccccc4)c(=O)c4ccccc4n3c2=O)cc1`, the activity change, negative = inhibition in assay [1] stood at 8.27%; in assay [2], 2.9%; in assay [3], 11%; in assay [4], 3.16%; in assay [5], 6.22%.

`CC1(C)CC(CC(=O)N2CCCCC2)(c2ccccc2)CCO1` (stereo not given): the activity change, negative = inhibition is -5.13% in assay [1]; 3.25% in assay [2]; 1.33% in assay [3]; 5.43% in assay [4]; -0.898% in assay [5].

`CC1(C)CC[C@]2(C(=O)O[C@@H]3O[C@H](CO)[C@@H](O)[C@H](O)[C@H]3O)CC[C@]3(C)C(=CCC4[C@@]5(C)C[C@H](O)[C@H](O[C@@H]6OC[C@@H](O)[C@H](O)[C@H]6O)[C@@](C)(CO)C5CC[C@]43C)C2C1` (stereo not given in full): the activity change, negative = inhibition in assay [1] is 6.93%; in assay [2], 5.93%; in assay [3], 9.56%; in assay [4], -6.05%; in assay [5] it was 10.6%.

Regarding `Cc1ccc(Nc2c(F)cccc2Cl)c(CC(=O)O)c1`, the activity change, negative = inhibition in assay [1] is -5.3%; in assay [2], -8.18%; in assay [3], -0.35%; in assay [4], -24.8%; in assay [5], -4.83%.

As for `O=C(CCc1nnc2n(Cc3ccccc3Cl)c(=O)c3ccccc3n12)NCCc1c[nH]c2ccccc12`, the activity change, negative = inhibition in assay [1] is -3.37%; in assay [2], 2.59%; in assay [3] it was -32.6%; in assay [4], -3.27%; in assay [5] it was -4.84%.

Regarding `CCN1C(=O)C2CC3(CCN(S(C)(=O)=O)CC3)CN2C1=O` (stereo not given), the activity change, negative = inhibition in assay [1] is -4.02%; in assay [2], -10%; in assay [3] it was -5.46%; in assay [4], -11.5%; in assay [5], -12.1%.

Take `Cc1cccc(Cn2nc3n(CCC(C)C)c(=O)c4ccc(C(=O)NC(C)C)cc4n3c2=O)c1`: the activity change, negative = inhibition in assay [1] is -0.221%; in assay [2], -0.929%; in assay [3], 14.2%; in assay [4], 0.584%; in assay [5], -2.28%.

In the case of `CCc1nnc(CN(CC)C(=O)c2cc(S(N)(=O)=O)ccc2F)o1`, the activity change, negative = inhibition in assay [1] was 0.271%; in assay [2] it was -1.63%; in assay [3], 0.164%; in assay [4] it was -2.43%; in assay [5], 0.203%.

`COC(=O)c1ncn2c1C(=O)N(c1ccc(C)c(C)c1)C(C)(C(=O)NCCCOC(C)C)C2` (stereo not given): the activity change, negative = inhibition in assay [1] amounted to 4.98%; in assay [2] it was 0%; in assay [3] it was 14.3%; in assay [4], 5.27%; in assay [5], 9.4%.

In the case of `CCN(CC)CCCN1C(=O)c2cc3occc3n2CC1(C)C(=O)NC1CCCCCC1` (stereo not given), the activity change, negative = inhibition in assay [1] was -1.81%; in assay [2], -3.36%; in assay [3], 5.19%; in assay [4], 1.15%; in assay [5], -1.37%.

In the case of `CC1CCN(S(=O)(=O)c2ccc3c(ccn3CCC(=O)N3CCc4ccccc43)c2)CC1`, the activity change, negative = inhibition in assay [1] was -0.978%; in assay [2] it was -1.53%; in assay [3], -1.9%; in assay [4], -8.62%; in assay [5] it was -6.37%.

For the molecule `NC(=NCc1ccccc1)NC(=O)c1nc(Cl)c(N)nc1N`, the activity change, negative = inhibition in assay [1] was -11.3%; in assay [2], -0.146%; in assay [3] it was -9.1%; in assay [4], -10.7%; in assay [5], -1.53%.

Turning to `COc1ccc(N2CCN(C(=O)c3ccc(Nc4nc5ccccc5n5nnnc45)cc3)CC2)cc1`, the activity change, negative = inhibition in assay [1] was -15.8%; in assay [2] it was 2.14%; in assay [3], -6.31%; in assay [4], -3.45%; in assay [5], -6.11%.

As to `COc1ccc([C@@H]2OC[C@H]3[C@@H]2CO[C@@H]3c2ccc(OC3OC(CO)C(O)C(O)C3O)c(OC)c2)cc1OC` (stereo not given in full), the activity change, negative = inhibition in assay [1] is 2.9%; in assay [2], 3.8%; in assay [3], 6.92%; in assay [4], -9.09%; in assay [5], -1.38%.

Turning to `COc1cc(O)c([C@@H](CC(=O)N2CC(C)CC(C)C2)c2ccc3c(c2)OCO3)c(OC)c1` (stereo not given in full), the activity change, negative = inhibition was 2.29% in assay [1]; 2.77% in assay [2]; 7.37% in assay [3]; -44.7% in assay [4]; -1.16% in assay [5].

On to `C/C=C/C1=CC2=C(CO1)C(=O)C(C)(OC(=O)c1c(C)cc(O)cc1OC)C(O)C2` (stereo not given), for which the activity change, negative = inhibition in assay [1] is 1.13%; in assay [2], 6.58%; in assay [3], 12.5%; in assay [4], -2.35%; in assay [5], 5.77%.
